# PubChem BioAssay AID686978 (National Center for Advancing Translational Sciences (NCATS), 2013)
# Out of some 420,000 compounds screened, about 64,000 (15%) were called active. This list was built around the results that the source calls inconclusive (neither active nor inactive); the mix of calls is not that of the screen. The call rests on the fitted dose curve; in most records, active means well fitted inhibition curve with a large enough effect; inconclusive means small, poorly fitted or top-dose-only effect; inactive means flat fitted curve, though single readings scatter. No potency is given beside an inconclusive call; the fits are too rough.
# Assay: qHTS for Inhibitors of human tyrosyl-DNA phosphodiesterase 1 (TDP1): qHTS in cells in absence of CPT; further: nearly all actives have a fitted effect of over 55% in size
# Conditions: DT40 Tdp1-/- hTDP1 cells, no CPT, ATP luminescence, 48 h; activity change, negative = growth inhibition: at 46.2 µM (top of the series) unless noted
# Outline: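 Chicken DT40 Tdp1-/- cells complemented with human TDP1, screened without camptothecin (DMSO vehicle only), 400 cells/well. Compounds pin-transferred, cells incubated at 37 °C for at least 48 hr. Growth read as ATP-dependent luminescence (CellTiter-Glo, 30 min at RT).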
# On the % scale 0 is the no-effect control and ±100 the full control effect; potency means the concentration at half of the fitted maximal effect; tags describe the fitted curve by direction and shape.
Compound,"activity change, negative = growth inhibition",Potency
C/C(=N\n1cnnc1)c1ccc(C#N)cc1,inactive: -8.37%,–
O=C(Nc1ccccc1Cl)c1ccc([N+](=O)[O-])o1,–,active: 29.1 µM
CC(C)(C)C(=O)CNS(=O)(=O)c1ccc(S(=O)(=O)NC2CCCC2)cc1,inactive: -17.3%,–
COc1ccc(CC(=O)N2CC3(C)CC2CC(C)(C)C3)cc1OC (centres undefined),–,"inconclusive [inhibitor, single point]"
O=C(NCCC1=CCCCC1)C1CCN(S(=O)(=O)c2cccc3nonc23)CC1,inconclusive: -18.4% [inhibitor],–
O=C(CSCc1cnn(-c2ccccc2)c1-n1cccc1)NCc1cccc(Cl)c1,–,active: 23.1 µM
Cc1cccc(C)c1NC(=O)CC1SC2=NCCN2C1=O (centres undefined),–,"inconclusive [inhibitor, single point]"
CCCSc1ncc(Cl)c(C(=O)Nc2sc3c(c2C(=O)OC)CCCC3)n1,–,inactive
COc1ccc2c(c1)[C@@H]1[C@H](CO2)[C@H](c2ccccc2)[C@]2(C)C(=O)Nc3ccc(C)cc3C(=O)N12,–,"inconclusive [inhibitor, single point]"
COC1=C(Nc2ccc(OC)cc2)C(=O)c2ccccc2C1=O,–,active: 14.6 µM
CC1=C(C(=O)N2CCN(c3ccccc3)CC2)C2(CCCCC2)OC1=O,inactive: -27.4%,–
CSC1=NCCN1C(=O)Cc1ccc(-c2ccccc2)cc1,–,"inconclusive [inhibitor, partial curve]"
Cc1ccc(NC(=S)NC(NC(=O)c2ccccc2C)C(Cl)(Cl)Cl)c(C)c1 (centres undefined),–,"inconclusive [inhibitor, single point]"
COc1ccc(Cl)cc1CNC[C@H]1O[C@@H](n2ccc(N)nc2=O)[C@H](O)[C@@H]1O,inactive: 8.64%,–
COc1cc2c(NC3CCN(C)CC3)nc(N3CCCN(C)CC3)nc2cc1OCCCCN,–,"inconclusive [inhibitor, single point]"
O=C(OCc1ccc(Cl)c(Cl)c1)c1ccc[nH]1,inactive: -6.08%,–
CC(C)(C)NC(=O)c1oc2ccccc2c1NC(=O)c1ccccc1F,–,"inconclusive [inhibitor, single point]"
Cc1ccc(C)c(S(=O)(=O)N2CCN(C(=O)C3CCN(C(=O)c4ccc(F)cc4)CC3)CC2)c1,–,"inconclusive [inhibitor, single point]"
CC(=O)c1cccc(Nc2ccc(C#N)cc2)c1,–,"inconclusive [inhibitor, single point]"
Cc1nc(-c2cccc(NC(=O)c3cccs3)c2)cs1,–,"inconclusive [inhibitor, single point]"
Cc1ccc(S(=O)(=O)Nc2ccc3nc(-c4ccc(F)cc4)oc3c2)cc1,–,"inconclusive [inhibitor, partial curve]"
O=C(c1ccc(-c2ccccc2Cl)o1)N1CCC1,–,"inconclusive [inhibitor, partial curve, poor fit]"
Cc1noc(C)c1-c1ccc(C(=O)NCCN2CCOCC2)c2occc12,–,active: 29.1 µM
CCCCOc1ncnc2c1[nH]c1ccc(C)cc12,–,active: 20.6 µM
Cc1ccc(NS(=O)(=O)c2ccc(C(=O)N3CC(C)OC(C)C3)cc2)cc1 (centres undefined),–,"inconclusive [inhibitor, single point]"

Compound,"activity change, negative = growth inhibition",Potency
COc1ccc(/C=C\c2onc(C)c2S(=O)(=O)N2CCC(C(=O)Nc3cccc(OC)c3)CC2)cc1,–,active: 16.4 µM
Cc1ccc(Cc2c(-c3ccc(F)cc3)nc3ccc(Br)cn23)cc1,–,"inconclusive [inhibitor, single point]"
CCOC(=O)CNC(=S)N(Cc1ccc(C)cc1)Cc1ccc(C)o1,–,"inconclusive [inhibitor, partial curve, poor fit]"
CCCn1c(O)c(N=NC(=O)c2cccnc2)c2cc(Br)ccc21,–,"inconclusive [inhibitor, single point]"
Cc1cccc(CNc2cc(-c3c(C)noc3C)ncn2)c1,–,"inconclusive [inhibitor, single point]"
CCCCCCNc1c(C(=O)OCC)c(=O)[nH]c2ccccc12,–,"inconclusive [inhibitor, single point]"
C(=N\N1CCN(Cc2ccccc2)CC1)/c1ccc(-c2ccccc2)cc1,–,"inconclusive [inhibitor, full curve]"
Nc1cc[n+](CC(=O)Nc2ccccc2)cc1,inactive: -11.9%,–
O=C(NCc1ccncc1)C1Cc2c(-c3ccc4c(c3)OCO4)ccnc2O1 (centres undefined),–,active: 13 µM
O=C(CCSc1ccccc1)Nc1nc2c(s1)CCCC2,–,active: 10.3 µM
COc1ccccc1N(C)S(=O)(=O)c1ccc(C(=O)N(C)Cc2cccc(OC)c2OC)cc1,–,active: 20.6 µM
Cc1ccc(C(=O)Cn2c(=N)n(N)c3ccccc32)cc1,inconclusive: -31.9% [inhibitor],–
N#CNC(=Nc1ccccc1F)SCc1ccc(C(=O)O)cc1,inactive: 7.25%,–
Cn1cc(-c2nc3cnc(N4CCOCC4)nc3n(C3CC3)c2=O)c2ccccc21,inactive: -6.41%,–
CC(C)Cc1cc(C(=O)Nc2ccc3c(c2)OCO3)no1,inactive: -24.8%,–
C=CCN(c1ccccc1)S(=O)(=O)c1cccc(C(=O)NCC(c2cccs2)N2CCOCC2)c1 (centres undefined),–,active: 7.31 µM
O=C(Nc1ccccc1)Nc1ccc2nnsc2c1,–,active: 16.4 µM
O=C(c1n[nH]c2c1CCCC2)N1CCOc2ccc(C(O)C3CCCCC3)cc2C1 (centres undefined),inactive: -26.6%,–
CCc1ccc(-n2c(=O)c3c4c(sc3n(CC(=O)c3ccc(Br)cc3)c2=O)CCC4)cc1,–,active: 3.66 µM
COc1ccc(C2CC(c3ccccc3)=NN2C(=O)COC(=O)c2cccc(N)c2)cc1 (centres undefined),–,"inconclusive [inhibitor, single point]"
CC(C)[C@H](NC(=O)c1ccccc1)C(=O)OCC(=O)NCc1ccc2c(c1)OCO2,–,"inconclusive [inhibitor, partial curve, poor fit]"
Cc1noc(C)c1-c1ccc(C(=O)NCc2ccco2)c2occc12,–,"inconclusive [inhibitor, single point]"
Cc1nnc(SCc2nc3ccccc3nc2C)s1,–,"inconclusive [inhibitor, partial curve, poor fit]"
c1ccc(-c2nc(-c3ccncc3)no2)cc1,inactive: -18.9%,–
COc1ccc(-c2c(C#N)sc(C(N)=O)c2-c2ccc(OC)cc2)cc1,–,active: 10.3 µM

Compound,"activity change, negative = growth inhibition",Potency
N#CCC(=O)Nc1ccc(C(=O)NCCc2c[nH]c3ccccc23)cc1,inactive: -21.4%,–
O=C(NCc1ccccc1)c1cc2ccc3cccnc3c2[nH]1,–,"inconclusive [inhibitor, single point]"
O=C(CCc1ccccc1Cl)NC1CCCN(c2ccc(C(F)(F)F)cn2)C1 (centres undefined),inactive: 5.5%,–
O=C(NCCc1ccc(O)cc1)c1[nH]c(C(F)(F)F)nc1-c1ccccc1,inactive: -12.2%,–
CCCc1nc(SCC(=O)N2CCCC2)c2ccccc2n1,–,"inconclusive [inhibitor, single point]"
CCOc1cccc(N(C(=O)c2ccco2)C(C(=O)NC2CCCC2)c2cccnc2)c1 (centres undefined),inactive: -22.3%,–
O=Cc1cc2c(cc1[B-](F)(F)F)OCO2,–,"inconclusive [inhibitor, single point]"
C#CCOCCOCCOCCNc1nc(N2CCN(C(=O)[C@H](CCC(=O)O)n3cc(C(N)[C@H](C)CC)nn3)CC2)nc(N2CCN(C(=O)[C@H](CCC(=O)O)n3cc(C(N)[C@H](C)CC)nn3)CC2)n1 (some centres undefined),–,"inconclusive [inhibitor, single point]"
CCN(CC)C(=O)C1=C(C)N(Cc2ccc(OC)cc2)C(=O)C(CC(=O)NCCCCc2ccccc2)C1 (centres undefined),–,"inconclusive [inhibitor, single point]"
COCC(=O)Nc1c(C(=O)Nc2ccc3c(c2)OCO3)oc2ccccc12,–,"inconclusive [inhibitor, single point]"
CCc1cc(-c2[nH]ncc2-c2ccc([N+](=O)[O-])cc2)c(O)cc1OC,–,"inconclusive [inhibitor, single point]"
O=C(Oc1c(Br)cc([N+](=O)[O-])cc1Br)c1cccnc1,–,"inconclusive [inhibitor, single point]"
CC(C)(C)c1nnc2sc(SCCN3C(=O)c4ccccc4C3=O)nn2c1=O,inactive: -0.634%,–
Cc1c(C(=O)NCCc2ccccc2)oc2ccccc12,inactive: -16.6%,–
CCOc1ccc(C(=O)CCC(=O)NC(C)C(=O)OC)cc1 (centres undefined),–,"inconclusive [inhibitor, partial curve, poor fit]"
COc1ccc(C(=O)C(C)OC(=O)COc2ccccc2)cc1 (centres undefined),inactive: 3.37%,–
NC(=O)Cn1nc([N+](=O)[O-])nc1Oc1ccccc1F,inactive: 1.51%,–
CC(=O)C1=C(O)C(=O)N(c2ccc(Br)cc2)C1c1cccc(F)c1 (centres undefined),–,"inconclusive [inhibitor, single point]"
Cc1ccccc1CCNC(=O)C1CCN(S(=O)(=O)c2ccc3c(ccn3C)c2)CC1,–,"inconclusive [inhibitor, single point]"
O=C(C1CCCN(S(=O)(=O)c2cc(Cl)ccc2Cl)C1)N1CCCCCC1 (centres undefined),–,"inconclusive [inhibitor, single point]"
O=c1c(-c2nnc(SCc3ccc(Cl)cc3)o2)cccn1Cc1ccccc1,inactive: -21.2%,–
CC(=O)Nc1ccc(S[C@@H](CCN2CC[C@H](O)CCC2=O)c2ccccc2)cc1,–,inactive
N#CC1(NC(=O)CN2C(=O)c3ccccc3C2=O)CCCCC1,inactive: -9.96%,–
COc1ccccc1N1CCN(C(=O)c2ccccc2N(C)S(=O)(=O)c2ccc(C)cc2)CC1,–,active: 16.4 µM
